The values that follow come from the supplement of paper PMC8728848.

The list shows a part of the results.

Holding throughout (experiment): glycan array binding signal (z-score within array); higher = stronger binding
Holding throughout (conditions): glycan notation: IUPAC condensed, linker removed

Assay [1] addresses Gal(b1-4)GlcNAc(b1-2)Man(a1-6)[Man(a1-3)]Man(b1-4)GlcNAc(b1-4)GlcNAc. The method in brief: (§1)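 Arrays were curated from the Consortium for Functional Glycomics database, 3228 in total, and kept only where the protein sequence was available. Binding is expressed as a within-array Z-score. This score was averaged across arrays of the same protein sequence at different concentrations or buffers and across linkers, and negative values can be read as non-binding.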

For assay [2], the target named is Gal(b1-4)GlcNAc(b1-2)[Gal(b1-4)GlcNAc(b1-4)]Man(a1-3)[Gal(b1-4)GlcNAc(b1-2)Man(a1-6)]Man(b1-4)GlcNAc(b1-4)GlcNAc. An outline of the steps:
as §1

The target in assay [3] is Gal(b1-4)GlcNAc(b1-2)[Gal(b1-4)GlcNAc(b1-4)]Man(a1-3)[Gal(b1-4)GlcNAc(b1-2)[Gal(b1-4)GlcNAc(b1-6)]Man(a1-6)]Man(b1-4)GlcNAc(b1-4)GlcNAc. An outline of the steps: as §1
Assay [4] addresses Gal(b1-4)GlcNAc(b1-2)[Gal(b1-4)GlcNAc(b1-4)]Man(a1-3)[GlcNAc(b1-4)][Gal(b1-4)GlcNAc(b1-2)Man(a1-6)]Man(b1-4)GlcNAc(b1-4)GlcNAc. The method in brief: as §1
Assay [5] has as its target Gal(b1-4)GlcNAc(b1-2)[Gal(b1-4)GlcNAc(b1-4)]Man(a1-3)[GlcNAc(b1-4)][Gal(b1-4)GlcNAc(b1-2)[Gal(b1-4)GlcNAc(b1-6)]Man(a1-6)]Man(b1-4)GlcNAc(b1-4)GlcNAc. An outline of the steps:
as §1

For assay [6], the target named is Gal(b1-4)GlcNAc(b1-2)[Gal(b1-4)GlcNAc(b1-6)]Man(a1-6)[Gal(b1-4)GlcNAc(b1-2)Man(a1-3)]Man(b1-4)GlcNAc(b1-4)GlcNAc. The method in brief:
as §1

Assay [7] addresses Gal(b1-4)GlcNAc(b1-2)[Gal(b1-4)GlcNAc(b1-6)]Man(a1-6)[Gal(b1-4)GlcNAc(b1-2)Man(a1-3)]Man(b1-4)GlcNAc(b1-4)[Fuc(a1-6)]GlcNAc. The method in brief: as §1
Assay [8] concerns the target Gal(b1-4)GlcNAc(b1-2)[Gal(b1-4)GlcNAc(b1-6)]Man(a1-6)[GlcNAc(b1-4)][Gal(b1-4)GlcNAc(b1-2)Man(a1-3)]Man(b1-4)GlcNAc(b1-4)GlcNAc. The method in brief:
as §1

Assay [9] concerns the target Gal(b1-4)GlcNAc(b1-2)[Gal(b1-4)GlcNAc(b1-6)]Man(a1-6)[GlcNAc(b1-4)][Gal(b1-4)GlcNAc(b1-2)[Gal(b1-4)GlcNAc(b1-4)]Man(a1-3)]Man(b1-4)GlcNAc(b1-4)[Fuc(a1-6)]GlcNAc. The method in brief: as §1
The target in assay [10] is Gal(b1-4)GlcNAc(b1-3)Gal(b1-3)GalNAc. An outline of the steps:
as §1

In assay [11] the target is Gal(b1-4)GlcNAc(b1-3)Gal(b1-3)GlcNAc. An outline of the steps: as §1
The target of assay [12] is Gal(b1-4)GlcNAc(b1-3)Gal(b1-4)Glc. An outline of the steps: as §1
In assay [13] the target is Gal(b1-4)GlcNAc(b1-3)Gal(b1-4)GlcNAc. An outline of the steps: as §1
The target of assay [14] is Gal(b1-4)GlcNAc(b1-3)Gal(b1-4)GlcNAc(b1-2)Man(a1-3)[Gal(b1-4)GlcNAc(b1-3)Gal(b1-4)GlcNAc(b1-2)Man(a1-6)]Man(b1-4)GlcNAc(b1-4)GlcNAc. The method in brief:
as §1

Assay [15] addresses Gal(b1-4)GlcNAc(b1-3)Gal(b1-4)GlcNAc(b1-2)Man(a1-3)[Gal(b1-4)GlcNAc(b1-3)Gal(b1-4)GlcNAc(b1-2)Man(a1-6)]Man(b1-4)GlcNAc(b1-4)[Fuc(a1-6)]GlcNAc. An outline of the steps: as §1
Assay [16] concerns the target Gal(b1-4)GlcNAc(b1-3)Gal(b1-4)GlcNAc(b1-2)[Gal(b1-4)GlcNAc(b1-3)Gal(b1-4)GlcNAc(b1-6)]Man(a1-6)[Gal(b1-4)GlcNAc(b1-3)Gal(b1-4)GlcNAc(b1-2)Man(a1-3)]Man(b1-4)GlcNAc(b1-4)GlcNAc. The method in brief:
as §1

The target in assay [17] is Gal(b1-4)GlcNAc(b1-3)Gal(b1-4)GlcNAc(b1-2)[Gal(b1-4)GlcNAc(b1-3)Gal(b1-4)GlcNAc(b1-6)]Man(a1-6)[Gal(b1-4)GlcNAc(b1-3)Gal(b1-4)GlcNAc(b1-2)Man(a1-3)]Man(b1-4)GlcNAc(b1-4)[Fuc(a1-6)]GlcNAc. The method in brief: as §1
In assay [18] the target is Gal(b1-4)GlcNAc(b1-3)Gal(b1-4)GlcNAc(b1-3)Gal(b1-4)GlcNAc. The method in brief:
as §1

B1: GS7807H-bfa-490-18-490 (Bacteroides fragilis) (protein)
chain: GNLEEMNIDPDNATQTHPKLLLTQICMNAFKRGTDGMYATKKVIQADGESADQYYKWTRGSFGYYDNLRNVQKMGEEAERVNAPVYTALTKFFRAYYFYELTLRFGDIPYSQALKGEKEEIYTPEYDAQEDVFAGILQELREADEILANDASVIDGDIIYNGNSTQWRKLINSFRLKVLMTLSNHTTVGNINIASEFKNIATNSPLMNSLADNGQLVYLDQQGNRYPQFNAQWSGYYMDDTFIQRMRERRDPRLFIFSAQTNKGKTEGKPIDDFSSYEGGDPAAPYSDAIIKVSEGTISPINDRFRTDPIVEPTMLMGYAELQQILAEAVVRGWISGNAQTYYEKGIRASFSFYETHAKDYAGYLNENAVAQYLKEPLVDFTQASGTEEQIERIIMQKYLVTFYQGNWDSFYEQLRTGYPDFRRPAGTEIPKRWMYPQGEYDNNGTNVETAITRQFGAGNDKINQATWWQKKS
In the case of B1, the “glycan array binding signal (z-score)” value in assay [1] was -0.18; in assay [2], -0.018; in assay [3], -0.043; in assay [4], -0.67; in [5], -0.519; in assay [6], 0.305. For the same molecule, the “glycan array binding signal (z-score)” value in assay [7] was -0.207; in assay [8], -0.466; in assay [9] it was 0.173; in assay [10], -0.184; in [11] it was -0.221; in assay [12], 0.164. Moreover, the “glycan array binding signal (z-score)” value in assay [13] was -0.224; in [14], 0.869; in assay [15] it was -0.377; in assay [16], 11.2; in [17], 0.497; in assay [18], 0.138.
